According to PubChem BioAssay (Tox21):
“And” between values parts separate entries of the source, which are not always exact repeats. Equal values may be shown once. The shares of active, inactive and inconclusive entries below differ from those in the screen. For part of these data: Where the call is inconclusive, the potency comes from a doubtful curve fit. The source holds several records for some structures; these can differ, active in one and inactive in another. The source made the active and inactive calls. Unless noted, calls come from the whole dose curve; as a rule, active = well fitted curve in the direction sought with a large enough effect in the repeat runs; inconclusive = weak or mixed curves; inactive = no such curve, though single readings can be large; an effect the other way counts as inactive or inconclusive.

What was measured:
[1] = target: Peroxisome proliferator-activated receptor gamma (Homo sapiens) (UniProt P37231); experiment: qHTS assay to identify small molecule antagonists of the peroxisome proliferator-activated receptor gamma (PPARg) signaling pathway (AID 743191; calls by dose curve; note: nearly all actives have a fitted effect of over 30% in size; note: potency is the fitted concentration of half-maximal effect; for ratio activity, negative = inhibition: % is set by controls: 0 for no effect and ±100 for the full control effect); conditions: HEK293H PPARg-UAS-bla, beta-lactamase ratio, antagonist, 17 h; ratio activity, negative = inhibition: at 62.6 µM (top of the series) unless noted
Summary of the method: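 Beta-lactamase reporter under UAS control in HEK293H PPARg-bla cells; compound treatment 17 h at 37C. Read-out: fluorescence intensity after 1 h room-temperature incubation with LiveBLAzer B/G FRET substrate.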

[2] = target: Peroxisome proliferator-activated receptor delta (Homo sapiens) (UniProt Q03181); experiment: qHTS assay to identify small molecule agonists of the peroxisome proliferator-activated receptor delta (PPARd) signaling pathway (AID 743212; calls by dose curve; note: potency is the fitted concentration of half-maximal effect); conditions: HEK293H PPARd-UAS-bla, beta-lactamase FRET ratio, 17 h; activation: at 62.6 µM (top of the series) unless noted
Summary of the method: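 HEK293H UAS-bla reporter cells, human PPARd system; compounds delivered in DMSO after 5 h plating, then at 37 C. Beta-lactamase FRET read, 2 h RT substrate step.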

[3] = qHTS assay to identify small molecule antagonists of the peroxisome proliferator-activated receptor delta (PPARd) signaling pathway - cell viability counter screen (AID 743213); conditions: PPARd-bla HEK293H viability, CellTiter-Glo luminescence, 17 h; viability change, negative = cytotoxic: at 62 µM (top of the series) unless noted; note: nearly all actives have a fitted effect of over 50% in size; note: potency is the fitted concentration of half-maximal effect; for viability change, negative = cytotoxic: % is set by controls: 0 for no effect and ±100 for the full control effect
Summary of the method: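 HEK293H cells with the PPARd UAS-bla reporter, co-treated 17 h at 37 C with compounds and L165041 (300 nM final), were lysed with CellTiter-Glo. Luminescence indicated viable cell content.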

[4] = target: Peroxisome proliferator-activated receptor delta (Homo sapiens) (UniProt Q03181); experiment: qHTS assay to identify small molecule antagonists of the peroxisome proliferator-activated receptor delta (PPARd) signaling pathway (AID 743215; active = well fitted inhibition curve with a large enough effect in the signal ratio in the repeat runs, not every such curve was filed as active; inconclusive = weak or mixed curves, or effect the other way; inactive = no such curve, though single readings can be large or run the other way; the % refers to the signal ratio;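 note: cells stimulated with agonist L165041 at 300 nM final during compound exposure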; note: potency is the fitted concentration of half-maximal effect; for ratio activity, negative = inhibition: % is set by controls: 0 for no effect and ±100 for the full control effect); conditions: HEK293H PPARd-UAS-bla, beta-lactamase FRET ratio, antagonist, 17 h; ratio activity, negative = inhibition: at 62 µM (top of the series) unless noted
Summary of the method: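 PPARd UAS-bla HEK293H cells were pre-incubated 5 h at 37 C, then given test compounds in DMSO plus agonist L165041 (300 nM final). After 17 h at 37 C, beta-lactamase FRET substrate was added; fluorescence read after 2 h at room temperature.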

[5] = target: Bile acid receptor (Homo sapiens) (UniProt Q96RI1); experiment: qHTS assay to identify small molecule agonists of the farnesoid-X-receptor (FXR) signaling pathway (AID 743220; active = well fitted activation curve with a large enough effect in the signal ratio in the repeat runs, not every such curve was filed as active; inconclusive = weak or mixed curves, or effect the other way; the % refers to the signal ratio; note: potency is the fitted concentration of half-maximal effect); conditions: HEK293T FXR-UAS-bla, beta-lactamase FRET ratio, 16 h; activation: at 62.6 µM (top of the series) unless noted
Summary of the method: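 Beta-lactamase reporter under UAS control in GeneBLAzer FXR HEK 293T cells (5000/well) measured with LiveBLAzer FRET substrate after 2 h at room temperature. Compound exposure lasted 16 h at 37C.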

[6] = target: Vitamin D3 receptor (Homo sapiens) (UniProt P11473); experiment: qHTS assay to identify small molecule agonists of the vitamin D receptor (VDR) signaling pathway (AID 743222; calls by dose curve; note: potency is the fitted concentration of half-maximal effect); conditions: HEK293T VDR-UAS-bla, beta-lactamase FRET ratio, 16 h; activation: at 63.5 µM (top of the series) unless noted
Summary of the method: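 VDR-bla cells were plated 4 h at 37C/5% CO2, then exposed to compounds in DMSO for 16 h. After LiveBLAzer B/G FRET substrate addition and 2 h at room temperature, beta-lactamase reporter fluorescence was read.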

[7] = qHTS assay to identify small molecule antagonists of the vitamin D receptor (VDR) signaling pathway - cell viability counter screen (AID 743225); conditions: VDR-bla HEK293T viability, CellTiter-Glo luminescence, 16 h; viability change, negative = cytotoxic: at 61 µM (top of the series) unless noted; note: nearly all actives have a fitted effect of over 50% in size; note: potency is the fitted concentration of half-maximal effect
Summary of the method: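 Cytotoxicity counter screen read by CellTiter-Glo luminescence (30 min, room temperature) in the same wells as the VDR-bla antagonist readout. HEK 293T VDR-UAS-bla cells had 16 h at 37C with compound and 3 nM (final) 1-alpha,25-dihydroxyvitamin D3, then 2 h with FRET substrate.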

[8] = qHTS assay to identify small molecule antagonists of the peroxisome proliferator-activated receptor gamma (PPARg) signaling pathway - cell viability counter screen (AID 743194); conditions: PPARg-bla HEK293H viability, CellTiter-Glo luminescence, 17 h, co-treated with 50 nM rosiglitazone; activity change, negative = cytotoxicity: at 62.6 µM (top of the series) unless noted; note: potency is the fitted concentration of half-maximal effect; nearly all actives have a fitted effect of over 55% in size
Summary of the method: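 Viability was measured as CellTiter-Glo luminescence in GeneBLAzer PPARg UAS-bla HEK293H cells. These cells had been exposed 17 h at 37 C to compounds together with rosiglitazone at 50 nM final, with the beta-lactamase readout taken in the same wells.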

[9] = qHTS assay for small molecule agonists of the antioxidant response element (ARE) signaling pathway (AID 743202; active = well fitted activation curve with a large enough effect in the signal ratio in the repeat runs, not every such curve was filed as active; inconclusive = weak or mixed curves, or effect the other way; inactive = no such curve, though single readings can be large or run the other way; the % refers to the signal ratio; note: % is set by controls: 0 for no effect and ±100 for the full control effect); conditions: HepG2 ARE-bla reporter, beta-lactamase FRET, 16 h; activation: at 73.3 µM (top of the series) unless noted
Summary of the method: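 An ARE-responsive beta-lactamase gene stably integrated in HepG2 cells serves as reporter. After 5 h plating and 16 h compound incubation at 37 C, fluorescence of the B/G FRET substrate was measured.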

[10] = qHTS assay for small molecule agonists of the antioxidant response element (ARE) signaling pathway - cell viability counter screen (AID 743203; calls by dose curve; note: nearly all actives have a fitted effect of over 55% in size; note: potency is the fitted concentration of half-maximal effect); conditions: ARE-bla HepG2 viability, CellTiter-Glo luminescence, 16 h; viability change, negative = cytotoxic: at 73.3 µM (top of the series)
Summary of the method: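 CellSensor ARE-bla HepG2 cells, 2,000 per well, rested 5 hrs at 37C/5% CO2, then exposed to compound in DMSO for 16 hrs; viability read as CellTiter-Glo luminescence after 30 min at room temperature, in the reporter wells.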

[11] = qHTS assay to identify small molecule agonists of the peroxisome proliferator-activated receptor delta (PPARd) signaling pathway - cell viability counter screen (AID 743211); conditions: PPARd-bla HEK293H viability, CellTiter-Glo luminescence, 17 h; activity change, negative = cytotoxicity: at 62.6 µM (top of the series); note: % is set by controls: 0 for no effect and ±100 for the full control effect; nearly all actives have a fitted effect of over 55% in size
Summary of the method: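 Viability was measured as CellTiter-Glo luminescence (30 min, room temperature) in the same wells as the beta-lactamase readout. GeneBLAzer PPARd UAS-bla HEK293H cells received compound after 5 h plating and were incubated 17 h at 37 C.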

[12] = qHTS assay to identify small molecule agonists of the farnesoid-X-receptor (FXR) signaling pathway - cell viability counter screen (AID 743218); conditions: FXR-bla HEK293T viability, CellTiter-Glo luminescence, 16 h; viability change, negative = cytotoxic: at 62.6 µM (top of the series) unless noted; note: nearly all actives have a fitted effect of over 45% in size; note: potency is the fitted concentration of half-maximal effect
Summary of the method: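 FXR-UAS-bla HEK 293T cells, plated 5 h at 37 C, were exposed to compounds for 16 h at 37 C. CellTiter-Glo was then added to the same wells as the bla readout; luminescence read after 30 min at room temperature.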

[13] = target: Vitamin D3 receptor (Homo sapiens) (UniProt P11473); experiment: qHTS assay to identify small molecule antagonists of the vitamin D receptor (VDR) signaling pathway (AID 743223; active = well fitted inhibition curve with a large enough effect in the signal ratio in the repeat runs, not every such curve was filed as active; inconclusive = weak or mixed curves, or effect the other way; inactive = no such curve, though single readings can be large or run the other way; the % refers to the signal ratio; note: potency is the fitted concentration of half-maximal effect); conditions: VDR-UAS-bla HEK293T, beta-lactamase FRET ratio, 16 h; activity change, negative = inhibition: at 61 µM (top of the series) unless noted
Summary of the method: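 Antagonist mode: compound added to VDR-bla cells alongside agonist 1alpha,25-dihydroxyvitamin D3 (3 nM final), incubation 16 h at 37C. Read-out is LiveBLAzer FRET fluorescence, 2 h at room temperature.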

[14] = qHTS assay for small molecule activators of the heat shock response signaling pathway - cell viability counter screen (AID 743209); conditions: HSE-bla HeLa viability, CellTiter-Glo luminescence, 5 h; activity change, negative = cytotoxicity: at 62.6 µM (top of the series) unless noted; note: potency is the fitted concentration of half-maximal effect; nearly all actives have a fitted effect of over 50% in size
Summary of the method: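 CellSensor HSE-bla HeLa cells, plated overnight at 37 C/5% CO2, were exposed to compounds in DMSO for 5 h at 37 C. Viability was then read in the same wells by CellTiter-Glo luminescence after 30 min at room temperature.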

[15] = qHTS assay for small molecule activators of the heat shock response signaling pathway (AID 743210; active = well fitted activation curve with a large enough effect in the signal ratio in the repeat runs, with a control signal flat, not every such curve was filed as active; inconclusive = weak or mixed curves; the % refers to the signal ratio; note: potency is the fitted concentration of half-maximal effect); conditions: HeLa HSE-bla reporter, beta-lactamase ratio, 5 h; activation: at 62.6 µM (top of the series)
Summary of the method: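 In HSE-bla HeLa cells, 5 h compound incubation (37 C) precedes addition of LiveBLAzer B/G substrate; after 2.5 h at room temperature, fluorescence intensity indicates reporter induction.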

[16] = qHTS assay to identify small molecule antagonists of the farnesoid-X-receptor (FXR) signaling pathway - cell viability counter screen (AID 743221; active = well fitted cell-killing curve with a large enough effect in the repeat runs, not every such curve was filed as active; inconclusive = weak or mixed curves, or effect the other way; inactive = no such curve, though single readings can be large or run the other way; note: potency is the fitted concentration of half-maximal effect; nearly all actives have a fitted effect of over 50% in size); conditions: FXR-bla HEK293T viability, CellTiter-Glo luminescence, 16 h; activity change, negative = cytotoxicity: at 62.6 µM (top of the series)
Summary of the method: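 Cytotoxicity counter screen run in the FXR-bla reporter wells: HEK 293T cells exposed to compound with 50 uM (final) chenodeoxycholic acid for 16 h, 37 C, then viability measured by CellTiter-Glo luminescence after 30 min, room temperature.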
Tags give direction and shape of the fitted curve or compound fluorescence and quenching.

Chain of UniProt P11473 (P11473 whole entry, looked up): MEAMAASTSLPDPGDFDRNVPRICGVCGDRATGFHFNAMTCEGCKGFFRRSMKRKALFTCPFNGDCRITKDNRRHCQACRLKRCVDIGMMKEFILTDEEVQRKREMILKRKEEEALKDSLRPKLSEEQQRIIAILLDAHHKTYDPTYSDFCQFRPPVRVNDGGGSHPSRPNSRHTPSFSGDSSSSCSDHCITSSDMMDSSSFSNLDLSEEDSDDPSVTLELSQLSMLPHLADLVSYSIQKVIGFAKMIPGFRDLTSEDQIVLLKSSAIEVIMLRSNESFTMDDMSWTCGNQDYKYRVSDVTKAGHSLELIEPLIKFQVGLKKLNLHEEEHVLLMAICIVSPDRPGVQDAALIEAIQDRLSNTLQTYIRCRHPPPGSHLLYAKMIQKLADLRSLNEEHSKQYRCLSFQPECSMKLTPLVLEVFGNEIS
Chain of UniProt P37231 (P37231 whole entry, looked up): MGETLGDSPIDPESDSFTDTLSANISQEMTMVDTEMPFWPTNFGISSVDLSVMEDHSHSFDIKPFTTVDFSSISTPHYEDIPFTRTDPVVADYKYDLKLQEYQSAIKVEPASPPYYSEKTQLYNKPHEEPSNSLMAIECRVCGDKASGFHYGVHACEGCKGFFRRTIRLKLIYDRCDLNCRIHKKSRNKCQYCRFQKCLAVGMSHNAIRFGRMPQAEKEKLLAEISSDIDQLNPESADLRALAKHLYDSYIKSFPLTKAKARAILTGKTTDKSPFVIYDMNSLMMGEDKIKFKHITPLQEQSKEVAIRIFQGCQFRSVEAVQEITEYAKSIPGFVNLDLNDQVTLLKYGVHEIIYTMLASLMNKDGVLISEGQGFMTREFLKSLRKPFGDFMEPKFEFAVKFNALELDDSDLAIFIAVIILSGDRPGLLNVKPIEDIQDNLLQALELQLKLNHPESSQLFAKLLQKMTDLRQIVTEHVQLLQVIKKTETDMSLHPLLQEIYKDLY
Chain of UniProt Q03181 (Q03181 whole entry, looked up): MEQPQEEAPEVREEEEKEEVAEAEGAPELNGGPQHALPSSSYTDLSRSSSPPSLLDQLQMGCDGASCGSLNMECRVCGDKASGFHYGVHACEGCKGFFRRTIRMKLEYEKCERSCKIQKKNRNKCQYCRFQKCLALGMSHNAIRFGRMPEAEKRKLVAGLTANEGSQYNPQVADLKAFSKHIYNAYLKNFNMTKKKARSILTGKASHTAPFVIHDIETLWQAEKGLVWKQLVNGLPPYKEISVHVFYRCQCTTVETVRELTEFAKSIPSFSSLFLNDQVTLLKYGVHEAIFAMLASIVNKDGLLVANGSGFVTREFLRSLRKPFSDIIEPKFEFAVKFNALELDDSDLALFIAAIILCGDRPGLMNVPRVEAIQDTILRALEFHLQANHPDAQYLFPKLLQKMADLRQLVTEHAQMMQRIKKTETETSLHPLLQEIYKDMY
Chain of UniProt Q96RI1 (Q96RI1 whole entry, looked up): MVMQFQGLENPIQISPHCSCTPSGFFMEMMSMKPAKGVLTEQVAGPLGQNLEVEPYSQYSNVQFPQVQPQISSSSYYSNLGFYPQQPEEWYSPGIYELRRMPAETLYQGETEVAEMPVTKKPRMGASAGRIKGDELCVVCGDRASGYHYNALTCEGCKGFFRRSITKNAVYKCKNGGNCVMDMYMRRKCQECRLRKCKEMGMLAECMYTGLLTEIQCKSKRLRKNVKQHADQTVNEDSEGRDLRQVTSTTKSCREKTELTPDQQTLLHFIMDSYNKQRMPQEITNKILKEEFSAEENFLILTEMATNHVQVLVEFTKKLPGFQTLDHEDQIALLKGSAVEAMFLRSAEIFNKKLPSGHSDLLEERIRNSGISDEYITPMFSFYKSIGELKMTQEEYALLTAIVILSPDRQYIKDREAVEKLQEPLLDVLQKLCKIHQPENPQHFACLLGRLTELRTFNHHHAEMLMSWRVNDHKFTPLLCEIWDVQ

## COc1ccc(OC(=O)N(CC(=O)O)Cc2ccc(OCCc3nc(-c4ccccc4)oc3C)cc2)cc1
[1]
  ratio activity, negative = inhibition: inconclusive: 16.5%
[2]
  Potency: active: 8.41 µM
[3]
  Potency: inactive
[4]
  Potency: inactive
[5]
  Potency: inconclusive: 3.76 µM [fluorescent, partial curve, poor fit]
[6]
  Potency: inconclusive: 5.96 µM [fluorescent, full curve, poor fit]
[7]
  Potency: inactive

## O=C(O)c1ccccc1C(c1ccc(O)cc1)c1ccc(O)cc1
[8]
  Potency: inconclusive: 1.1 µM [rising, full curve, poor fit]
[9]
  activation: inconclusive: 7.37%

## OCCOCCOCCOCCO
[8]
  Potency: inconclusive: 8.89 µM [rising, partial curve]
[10]
  Potency: inactive
[11]
  Potency: inactive
[12]
  Potency: inactive
[13]
  Potency: inactive

## CCOC(=O)N1CCC(=C2c3ccc(Cl)cc3CCc3cccnc32)CC1
[8]
  Potency: active: 49 µM and active: 26.6 µM
[10]
  Potency: active: 30.6 µM and inconclusive: 33.5 µM [cytotoxic]
[14]
  Potency: inconclusive: 43.6 µM [cytotoxic, partial curve, poor fit]
[15]
  Potency: inconclusive: 49 µM and inconclusive: 28.7 µM
[2]
  Potency: inconclusive: 61.6 µM
  activation: inconclusive: -13.9%
[3]
  Potency: active: 43.6 µM and inconclusive: 3.35 µM [cytotoxic, full curve, poor fit]
[4]
  Potency: inconclusive: 54.9 µM [partial curve, poor fit]
  ratio activity, negative = inhibition: inconclusive: -58.5%
[12]
  Potency: active: 21.9 µM and inconclusive: 26.6 µM [cytotoxic, partial curve, poor fit]
[16]
  Potency: inconclusive: 54.9 µM [falling, partial curve] and inconclusive: 26.6 µM [falling, partial curve]
[7]
  Potency: active: 38.9 µM

## c1ccc2c(c1)-c1cccc3c1c-2cc1ccccc13
[1]
  Potency: inconclusive: 24 µM [activator, single point] and inconclusive: 49 µM [fluorescent, partial curve]
[15]
  Potency: inconclusive: 38 µM [activator] and inconclusive: 52.9 µM [fluorescent]
[2]
  Potency: inconclusive: 21.4 µM [rising, single point] and inconclusive: 61.6 µM [rising, single point]
[4]
  ratio activity, negative = inhibition: inconclusive: -0.168%
[6]
  Potency: inconclusive: 21.4 µM [fluorescent] and inconclusive: 54.9 µM [fluorescent, partial curve]
[13]
  Potency: inconclusive: 30.9 µM [activator, partial curve]
  activity change, negative = inhibition: inconclusive: 1.26%
